Molecular target: T1, CD47 on the surface of human cells (αCD47-Meso3CAR T细胞; tumour cell lines Hgc27, SKOV3, ASPC-1) (human, UniProt Q08722)
T1 construct: whole, on cells; also called 细胞表面的CD47; 肿瘤细胞表面CD47
Assay: flow cytometry on T cells, masking of staining by FITC mouse anti-human CD47

Sequence of UniProt Q08722 (Q08722 19-323): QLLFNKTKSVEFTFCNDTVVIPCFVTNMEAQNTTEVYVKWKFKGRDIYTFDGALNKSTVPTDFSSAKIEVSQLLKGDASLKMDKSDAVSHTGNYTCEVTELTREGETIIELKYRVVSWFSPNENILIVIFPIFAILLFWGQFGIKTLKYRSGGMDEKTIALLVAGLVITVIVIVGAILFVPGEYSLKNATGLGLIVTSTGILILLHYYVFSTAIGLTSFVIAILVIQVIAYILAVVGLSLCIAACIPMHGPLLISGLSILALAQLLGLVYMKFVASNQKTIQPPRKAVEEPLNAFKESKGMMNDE

binding result: binds
B1: 突变型αCD47 (CD47抗体 secreted by αCD47-Meso3CAR T细胞; CD47配体 fused to mutant IgG4 Fc) (Fc fusion)
chain: EEELQIIQPDKSVLVAAGETATLRCTITSLFPVGPIQWFRGAGPGRVLIYNQRQGPFPRVTTVSDTTKRNNMDFSIRIGNITPADAGTYYCIKFRKGSPDDVEFKSGAGTELSVRAKP[human IgG4 Fc with S228P L235E N297Q (EU numbers) left out]
notes: Tested as secreted product in the culture supernatant of αCD47-Meso3CAR T cells, not purified; also called pS328-αCD47 product
